# This is one part of the list. At the low end of the ranking the order means little.
# Biological target: SIX1-Q177R homeodomain (UniProt Q15475)
# Assay: universal protein binding microarray
# Conditions: Universal all-10-mer PBM (8x60K, AMADID 030236), 300 nM GST-tagged protein, Alexa Fluor 488 anti-GST; buffer, salt, pH and temperature not stated; high values mean tight binding; most listed sequences are background and not binding sites; double strand, one strand shown
row,Sequence,binding signal [E-score]
1,GGCATGAC,-0.125
2,GATTGGGC,-0.194
3,GGCCGACA,0.0563
4,ACCGGTCC,-0.122
5,ACCATACA,0.32
6,ATAAATCA,0.00587
7,AAAGTCCC,-0.169
8,TCAATGAA,-0.0866
9,CCTAGGTA,0.0378
10,CCGGATCC,0.249
11,CATGCTTA,0.0208
12,ACTACGAA,-0.0791
13,TATAGACA,0.28
14,ATCCCCCC,0.197
15,TGACGACA,0.212
16,CCTGCGTA,-0.0428
17,AGGTGACA,0.251
18,ATACCTAT,0.0929
19,ACGATGCC,-0.156
20,GGTTTTTA,-0.00611
21,CATCACCG,-0.00649
22,CCGGCGGC,-0.195
23,TATCTACA,0.202
24,GGCGGCAC,-0.0151
25,GAGCCGGA,-0.0316

row,Sequence,binding signal [E-score]
1,CAACAGGG,-0.0231
2,ACTATGGA,-0.0202
3,GTGGCGTA,0.134
4,AGCCTATC,-0.181
5,TCGCGCAA,-0.0775
6,ACAAGCGT,-0.0148
7,CGCTTAAG,-0.0394
8,GCGCAGCA,-0.0426
9,GACTAGCC,-0.243
10,CATGGGGA,0.126
11,ATTTAAAC,0.0723
12,GAGTTATC,0.0756
13,ATGTAACG,0.0103
14,GATAACAA,0.0184
15,ACAGATGC,-0.269
16,CAAAACCA,-0.00329
17,CCTGCGGC,0.00473
18,AATACAAC,0.0284
19,ACAGATTA,-0.172
20,GAATGGGA,-0.23
21,CCAGCACA,0.111
22,CTATAACC,0.0556
23,AGACGTTA,-0.137
24,AAGTTAAC,0.0305
25,CTCTTCGC,-0.102

row,Sequence,binding signal [E-score]
1,GGGTTTAA,0.232
2,CAATGGAC,-0.123
3,ATAACCAA,-0.288
4,ATAAAAGA,0.063
5,ACAGCTCT,-0.169
6,CGGTGGTA,0.105
7,AGAGGGCG,-0.1
8,CGCAAAGA,-0.0951
9,CCTCTGGC,-0.0166
10,AAACAGGA,-0.00667
11,CGGTTGAA,-0.0287
12,CAAGACAG,0.00975
13,GCCACGAA,-0.0235
14,AGAATCCT,-0.198
15,ACTCGAGT,0.125
16,GGTAAGCA,-0.0574
17,CGTAACAG,-0.0492
18,CAGACATA,-0.0692
19,AAGCACGG,0.00957
20,AGGTTACT,-0.0221
21,TGCGCAAA,-0.203
22,TCTTATCA,-0.0614
23,CTTACCCA,0.138
24,GGCCTGTA,-0.219
25,TAACGAAA,-0.122

row,Sequence,binding signal [E-score]
1,CTTCTATA,-0.0674
2,AAAGAGAG,-0.154
3,GGCTTGAA,-0.113
4,GTGCCCCA,0.0418
5,AGTCAATA,0.0279
6,ATAAACAT,-0.192
7,GGCGAGCC,-0.131
8,ACCAAAAA,0.027
9,CCGTGTCC,0.408
10,AGAGCAGC,-0.116
11,ATAGAATG,-0.139
12,ACTTTAGA,-0.156
13,ATGTGTTC,0.0422
14,ATACATTG,-0.0865
15,ACCTAATC,-0.162
16,CAGTATCA,0.2
17,CGTGTCGC,0.44
18,CTCTACGA,-0.0029
19,CAATGGTC,-0.117
20,AATCAGGC,-0.222
21,GTGACTTA,0.0306
22,CAATAAAC,-0.104
23,GCATGCCA,-0.203
24,ACATCCCT,-0.0909
25,CATAGTAG,0.0661

row,Sequence,binding signal [E-score]
1,TGAATGAA,-0.122
2,GGACTTCA,-0.0434
3,ATGAAGAG,-0.0892
4,GGCGATAC,0.174
5,ACCGTAAG,-0.114
6,AGTTGACA,0.0518
7,ATGGGGCC,-0.219
8,CGGCCCTC,-0.0696
9,AGCTCTGG,-0.269
10,AGAGCGCC,-0.156
11,TGAGTCCA,-0.0891
12,GTTGAAAC,-0.00734
13,GCGCTATA,-0.112
14,ATGTTGGC,-0.221
15,ACGTGAGA,-0.133
16,TATACTGA,-0.0903
17,ATTGGCAC,0.0709
18,AAACCCGC,-0.00813
19,AAACGACG,-0.0852
20,ATACTTGA,0.101
21,CTCTCAGA,-0.314
22,TAAAGCGA,-0.0859
23,ACAACAAG,-0.165
24,GTTTCACA,0.161
25,CATCTACA,0.0516

row,Sequence,binding signal [E-score]
1,CCAGCTAC,0.00288
2,CGGCTACA,0.133
3,GCTAAATA,-0.105
4,CTAACAGC,-0.202
5,AACATCGT,-0.143
6,AGATAATC,-0.0432
7,CGGAACAG,-0.208
8,ATGTGCTA,-0.292
9,GCCCCTCA,0.0147
10,GATGGCTA,-0.0909
11,CTAGGGGA,0.0148
12,ATCCCGAC,0.133
13,AAGGGGTC,0.17
14,GTGTCCGA,0.413
15,ATCCGGTG,0.354
16,AAGGACTG,-0.304
17,AACCGGAT,0.0221
18,GTGGACGA,-0.0957
19,AAGTAAGT,-0.0907
20,CGAAACCG,-0.0407
21,AGGAATAG,-0.108
22,ACTGACGA,-0.0804
23,CGTAGGAA,-0.0289
24,CATTACGC,-0.0757
25,CGTGAGCA,-0.0853

row,Sequence,binding signal [E-score]
1,GACTCATC,-0.07
2,ACCCTATC,0.17
3,ACGATCGT,0.0151
4,CGCATGCC,-0.225
5,GTTCGTTA,-0.155
6,AGAGAACA,0.113
7,CCTACTTA,0.131
8,AAACCTTT,-0.194
9,CGATACTC,0.211
10,CCGCCATA,0.0141
11,GCAAAAAA,-0.143
12,ATTATAGG,-0.125
13,GACTTCAC,-0.0555
14,CCTTGTTC,0.015
15,CAGACCGG,-0.201
16,ACGGCTCC,-0.0148
17,CAGTCGCC,-0.245
18,AAAGGTAG,-0.132
19,ATCTTACC,-0.0243
20,GTGCATGA,-0.0382
21,ACTAAGAT,0.0663
22,CGTCCTCA,-0.189
23,GGCTAGAA,-0.0468
24,TATGACCA,-0.204
25,ATGCTGAG,-0.0829

row,Sequence,binding signal [E-score]
1,TCTTAGCA,-0.209
2,ATGCATAC,-0.106
3,GAATGTAC,-0.165
4,CGATTGGC,-0.0217
5,GGACATTA,0.0691
6,GTCAGATA,0.0594
7,GCCATAAA,-0.141
8,CCTACGAC,0.0906
9,GCCGTGAC,0.0847
10,CGAGGTGA,-0.0309
11,ACTCCGCC,0.179
12,GGTCCGAA,-0.0655
13,GGTCATGA,0.13
14,AATGTGCA,-0.073
15,ATGAAAGC,-0.135
16,CAGTTGCA,0.105
17,GATCATTA,-0.00836
18,AGGCCCCC,-0.0695
19,CGGCAAGA,-0.00915
20,CCAGGATA,0.217
21,CAATGTCA,-0.0669
22,CGAACGCC,-0.0373
23,AAGGTCGG,0.0818
24,CGCTCGAC,-0.111
25,CAGGGACA,0.114

row,Sequence,binding signal [E-score]
1,AACGATGC,-0.297
2,GATTCGGC,0.0237
3,GACGACAA,-0.0732
4,ATATGTCG,-0.0925
5,CCACAATC,-0.116
6,ACATCTGG,-0.0493
7,CGTTGGTA,0.151
8,CTTCGGCC,-0.227
9,ACCATAGT,-0.0938
10,AACTCATA,-0.21
11,GCGTCTGA,-0.162
12,GCTCTGAC,0.0191
13,CTCAAAGA,-0.149
14,GCGCGCGC,-0.0199
15,CTGATTAC,0.0572
16,AAAGGGGC,-0.0825
17,TGGATGAA,-0.081
18,CCACATGC,-0.0463
19,CAAGATCG,-0.17
20,ATAAACTC,0.0256
21,ACCTTAGC,0.071
22,AAGCGTTG,-0.0832
23,GCATGGGA,0.00583
24,AGGCATTG,-0.127
25,CCAGCCGG,-0.131

row,Sequence,binding signal [E-score]
1,CAGGAGAC,-0.0162
2,ACGAGCAT,0.0697
3,GCGTATAC,0.158
4,ACAGCCTA,-0.102
5,ATTGGCCG,-0.188
6,ACCTAGCG,0.0695
7,CCCCTTCA,0.0576
8,GGTGCAGA,0.134
9,ACATATGG,-0.0667
10,ATGATTTC,-0.298
11,AAGATAAG,-0.0231
12,CGCTACCA,-0.0893
13,GATAGAAC,-0.0734
14,AAAATCCG,-0.00153
15,CTACAGCA,-0.101
16,GAGCCGCA,-0.213
17,ACATAACG,-0.19
18,GTTGGGTA,0.109
19,GCATACCC,0.11
20,CTCTTGTC,-0.0153
21,CTACGTGA,0.0294
22,AGGGTCAC,0.0913
23,GAGTCATC,0.0854
24,CCACTTTC,-0.187
25,AACCTCAC,0.0747

row,Sequence,binding signal [E-score]
1,AGGGTTAT,0.111
2,CTCCACTC,-0.00681
3,ACCCCAGG,0.249
4,AAGAGAGT,-0.0808
5,CCTGTAGC,-0.139
6,ATTTGAAG,-0.223
7,CTACTCAG,-0.183
8,CTAGTTAA,-0.0661
9,CCACTCCG,0.122
10,ACCCTTAG,0.172
11,CAGGGAAG,-0.176
12,GCGCGAAC,0.0694
13,CAGAGGAA,-0.163
14,TAAAGTCA,-0.223
15,ATTGACAG,-0.246
16,GGATGAAA,-0.0945
17,CAATCTCG,-0.152
18,GTCGAAGA,-0.191
19,CCCAGCGG,0.0612
20,AACTAAAG,-0.0943
21,ATAGCGCC,0.0881
22,ATTATACA,0.165
23,TGACAGCA,-0.0817
24,AACGTGGA,-0.255
25,GAGACGAA,-0.152

row,Sequence,binding signal [E-score]
1,ATGGTGTG,0.405
2,ACTATCAG,0.142
3,AAGTCGAC,-0.0133
4,AAAGGTTG,-0.186
5,GACAATGC,-0.171
6,ATAGTTCA,-0.173
7,GCGCTCAA,-0.194
8,AGATGACC,-0.156
9,AGAGACCG,-0.0974
10,GCGGAAGA,-0.169
11,ACCACGAT,0.0455
12,AGTGTCAC,0.45
13,AACACACT,0.276
14,GGATCTAC,-0.00587
15,GTGCAAGA,-0.0419
16,AATTGTAA,-0.148
17,GTCTAAAC,0.0568
18,CCCGGCGC,0.0102
19,ACTACAGT,0.0348
20,ACCACAAC,-0.0159
21,GACATTGA,-0.245
22,CTCTATTA,-0.0792
23,AGTACCAT,0.0467
24,ATCTTATG,-0.231
25,AGCCCACG,-0.113

row,Sequence,binding signal [E-score]
1,CTTGTGCA,-0.0895
2,AATGATCA,-0.288
3,CTCCCTGC,-0.0448
4,CTTCGCGC,-0.101
5,CGTTGAAC,0.0187
6,GAAACTAC,-0.0761
7,ATACTCAT,0.0568
8,AAAGGGTT,-0.155
9,CGTAACGC,0.0201
10,CGCACCCG,0.245
11,GAGTTTGA,-0.0457
12,GTGAACAC,0.412
13,CCGCAGTC,-0.0915
14,GGTTGGAA,-0.0119
15,CGCGCATC,-0.208
16,GGCCTACA,-0.0202
17,TGCGCCAA,-0.178
18,CATATCCG,-0.0981
19,CACTATGC,0.245
20,AGACGGCG,-0.192
21,CGGTTTTC,-0.173
22,ATAGAGTC,0.202
23,CAAAACCC,0.0705
24,TGATTTAA,-0.151
25,ATCGCACG,-0.00112

row,Sequence,binding signal [E-score]
1,AAGCTTGA,-0.156
2,AGTGAACT,-0.0967
3,CACCTGCG,0.26
4,GGCCTTTA,-0.131
5,ACGCTAAG,0.11
6,GCGTGCGA,0.000145
7,GCGAGCCC,0.0446
8,ATACCTGA,0.125
9,AAACCGAG,-0.122
10,CTAGACTA,-0.15
11,GCGAGTTA,-0.0168
12,CCAAGAAA,-0.191
13,AGGCTGCC,-0.297
14,CCATAAGC,-0.0949
15,AATTCTAC,-0.0345
16,GCTGTTTA,-0.213
17,CAGCACCC,0.188
18,CCCTTCTA,0.177
19,TACCGTCA,0.0795

# Reference: paper PMC10668032
